# About 340 (0.77%) of roughly 44,000 compounds were called active. The inconclusive results got no clear call from the source; some entries with a clear call stand among them for comparison. The call rests on the fitted dose curve; in most records, active means well fitted inhibition curve with a large enough effect; inconclusive means small, poorly fitted or top-dose-only effect; inactive means flat fitted curve, though single readings scatter. No potency is given beside an inconclusive call; the fits are too rough.
# Assay: Acumen qHTS Assay for Inhibitors of the mTORC1 Signaling Pathway in MEF (Tsc2-/-, p53-/-) Cells: Sytravon; further: nearly all actives have a fitted effect of over 50% in size;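 on activity change, negative = inhibition: plate controls were DMSO for no effect and rapamycin for full effect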
# Settings: phospho-rpS6 immunofluorescence/PI, 24 h; series mostly up to 38.3 µM; activity change, negative = inhibition: at the top concentration
# In short: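 Read-out: phospho-S6 Alexa-488 intensity over PI intensity per well, scored as % active cells using thresholds from rapamycin (7.5 nM) and DMSO controls. Tsc2-/-, p53-/- MEFs exposed to compound for 24 h; PI cell count recorded as viability.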
# Potency means the concentration at half of the fitted maximal effect; tags describe the fitted curve by direction and shape.
Structure (SMILES),Potency,"activity change, negative = inhibition"
Cc1oc2ncn(CC(C)C)c(=O)c2c1C(=O)NCCc1ccccc1,"inconclusive [falling, partial curve, poor fit]",
CCn1c(CC2C(=O)N(C)c3ccc(Br)cc32)nc2ccccc2c1=O (stereo not given),"inconclusive [falling, partial curve]",
COc1ccccc1OCc1nc(-c2cccc(C)c2)no1,,inactive: 20.3%
CC(Sc1nc2c([nH]c3ccccc32)c(=O)n1-c1ccccc1)c1ccccc1 (stereo not given),"inconclusive [falling, single point]",
COc1ccccc1NC(=O)C1=C(C)Nc2nc(SCc3cccc(F)c3)nn2C1c1ccc(C(=O)O)cc1 (stereo not given),"inconclusive [falling, full curve, poor fit]",
COc1cc(NS(=O)(=O)c2ccc(-c3cc(C)no3)cc2)cc(OC)c1,"inconclusive [falling, single point]",
COCCCn1c(=N)c(C(=O)NC2CCCCC2)cc2c(=O)n3cc(C)ccc3nc21,"inconclusive [falling, partial curve, poor fit]",
CC(C)OCCCNC(=O)CCCN1C(=O)CCn2nc(-c3cccn3C)cc21,"inconclusive [falling, single point]",
COc1cccc2c1cc1c(=O)n(CC(=O)N3CCC(C)CC3)nc(C)n12,,inactive: 0.976%
CCOc1ccccc1NS(=O)(=O)c1cc(-c2cnc(C3CC3)o2)ccc1C,,inactive: -3.44%
O=C(c1cc2ccc3cccnc3c2[nH]1)N1CCN(c2cccc(Cl)c2)CC1,,inactive: -9.32%
O=C(Cc1ccc(Cl)cc1)Nc1ccc2oc(-c3ccccc3F)nc2c1,"inconclusive [falling, single point]",
Fc1ccc(N2CCN(c3ncnc4c3nc3n4CCCC3)CC2)cc1,,inactive: -0.594%
COc1ccc(OC)c2sc(N(CCCN(C)C)C(=O)c3ccco3)nc12,"inconclusive [falling, single point]",
O=c1c2oc3ccccc3c2ncn1Cc1ccc(Br)cc1,"inconclusive [falling, partial curve, poor fit]",
CCCN(C(=O)c1cn(CC(C)C)c(=O)c2cc(OC)c(OC)cc12)c1cccc(C)c1,"inconclusive [falling, partial curve, poor fit]",
Cc1cc(S(=O)(=O)Nc2ccc3[nH]c(=O)sc3c2)ccc1F,,inactive: -0.169%
Cc1ccc(-c2n[nH]c3c2C(c2cccs2)N(c2ccc(Cl)cc2)C3=O)cc1 (stereo not given),"inconclusive [falling, single point]",
COc1ccc(N2CCN(Cc3nc(-c4ccc(C)cc4)no3)CC2)cc1,"inconclusive [falling, single point]",
COc1ccc(Cl)cc1NC(=O)CCCS(=O)(=O)c1nc(-c2ccc(OC)c(OC)c2)cc(C(F)(F)F)n1,active: 13.1 µM,
CCC(Cc1ccccc1)NC(=O)Cn1ncc2c3ccccc3n(Cc3ccc(F)cc3)c2c1=O (stereo not given),"inconclusive [falling, single point]",
Cc1ccc(-n2nc3c(N4CCC(C(=O)NCCC(C)C)CC4)nnc(C)c3c2C)cc1,,inactive: -2.25%

Structure (SMILES),Potency,"activity change, negative = inhibition"
CCC(=O)N1c2ccccc2CC1C(=O)NCCc1ccc(Cl)cc1 (stereo not given),"inconclusive [activator, single point]",
COc1ccc(CCNC(=O)Cn2nc(C)c3c(C)n(-c4ccc(C)cc4)nc3c2=O)c(OC)c1,,inactive: -15.7%
CCc1ccccc1Nc1cc(C(=O)NCCCN(C)C2CCCCC2)c2ccccc2n1,"inconclusive [falling, single point]",
O=C(CC(NCc1cccnc1)C(=O)O)Nc1ccc(O)cc1 (stereo not given),active: 14.7 µM,
O=C(CCn1ccc2cc(S(=O)(=O)N3CCCC3)ccc21)NCc1ccccc1Cl,,inactive: 0.746%
COc1cccc(-c2nnc3sc(CN4CCCCC4)cn23)c1,"inconclusive [falling, full curve]",
COc1ccc(Cl)cc1NC(=O)CSc1nc(-c2ccco2)cc(C(F)(F)F)n1,"inconclusive [falling, single point]",
Cc1ccc(S(=O)(=O)c2nc(-c3ccco3)oc2SCC(=O)Nc2ccc(F)cc2)cc1,,inactive: -0.694%
O=C1c2[nH]nc(-c3ccc(Br)cc3)c2C(c2cccc(O)c2)N1c1ccc(Cl)cc1 (stereo not given),"inconclusive [falling, single point]",
CCOc1ccc(OCC)c(NC(=O)CCC(=O)N2CCOc3ccccc32)c1,"inconclusive [falling, partial curve, poor fit]",
CCOC(=O)c1ccc(N2C(=O)c3n[nH]c(-c4ccco4)c3C2c2ccc(O)c(OC)c2)cc1 (stereo not given),"inconclusive [falling, single point]",
Cc1cccc(NC(=O)Cn2c(=O)nc(-c3ccccc3)c3ccccc32)c1C,"inconclusive [activator, single point]",
Cn1cc(C(=O)NCc2ccccc2)c(=O)c2cc(S(=O)(=O)N3CCOCC3)ccc21,,inactive: -9.01%
CSc1ccc(CCNC(=O)CN2C(=O)c3cccnc3Oc3ccc(C)cc32)cc1,,inactive: 3.64%
N=c1n(CCN2CCCCC2)c2ccccc2n1CC(O)COc1ccc(Cl)cc1Cl (stereo not given),active: 3.69 µM,
COc1cc(OC)c(NC(=O)Nc2cccc(OCc3cc(=O)n4ccccc4n3)c2)cc1Cl,,inactive: -5.99%
Cc1ccc(NS(=O)(=O)c2ccc3[nH]c4c(c3c2)CCCC4)cc1N(C)C,,inactive: -16.8%
CCc1ccccc1NC(=O)CCNS(=O)(=O)c1ccc2c(c1)CCN2C(=O)C1CC1,"inconclusive [falling, partial curve, poor fit]",
COc1ccccc1N1CCN(CCCNC(=O)c2cnn(-c3cccc(Cl)c3)c2C2CCN(C(=O)OC(C)(C)C)CC2)CC1,"inconclusive [falling, single point]",
CC(=O)Nc1ccc2nc(-c3cc(C)ccc3C)[nH]c2c1,,inactive: -4.87%
O=C(Nc1ccc(F)c(Cl)c1)C1CCCN(c2cnccn2)C1 (stereo not given),,inactive: -2.3%
CC(=O)N1CCCC1c1nc2ccccc2n1Cc1ccccc1C (stereo not given),"inconclusive [falling, single point]",

Structure (SMILES),Potency,"activity change, negative = inhibition"
COc1cccc2cc(C(=O)NCCc3c(C)[nH]c4ccc(F)cc34)c(=O)oc12,,inactive: -1.62%
Cc1ccc(NC(=O)Cn2c(=O)n(CCC(=O)NCc3ccccc3Cl)c(=O)c3ccccc32)cc1,"inconclusive [falling, partial curve, poor fit]",
CCN1CCc2nc3sc(C(=O)c4ccc(F)cc4)c(N)c3cc2C1,"inconclusive [falling, single point]",
COc1ccc(-c2onc(C)c2C)cc1S(=O)(=O)NCC1CCN(Cc2cccc(F)c2)CC1,"inconclusive [falling, partial curve, poor fit]",
Cc1cccc(N2CCN(C(=O)Cn3nc(Cc4cccnc4)c4ccccc4c3=O)CC2)c1C,"inconclusive [falling, partial curve]",
O=C(CCOc1ccccc1)N(Cc1cccnc1)c1nc2c(F)cccc2s1,"inconclusive [falling, single point]",
COc1ccccc1Nc1nn2c(=O)c3ccc(C(=O)NCCC4=CCCCC4)cc3nc2s1,"inconclusive [falling, single point]",
Cc1ccc(Cn2c(C(=O)O)c(CNC3CCCC3)c3ccc(C)cc32)cc1,,inactive: 4.78%
Cc1ccc(OCc2ccc(-c3nc(C#N)c(NCc4ccccc4Cl)o3)o2)cc1,"inconclusive [falling, single point]",
Cc1cc(C)cc(-n2c(SCC(N)=O)nc3c([nH]c4ccccc43)c2=O)c1,"inconclusive [falling, single point]",
Cc1ccc2nc(-c3cccc(NC(=O)c4cccc5ccccc45)c3)oc2c1,"inconclusive [falling, single point]",
CCOc1ccc(-n2c(SCC(=O)NC3CCCCC3)nc3c([nH]c4ccccc43)c2=O)cc1,,inactive: 2.19%
COc1ccc2nc(C)cc(Nc3ccc(Cl)c(Cl)c3)c2c1,"inconclusive [falling, single point]",
COc1ccc(-c2onc(C)c2C)cc1S(=O)(=O)NCC1CCN(Cc2cc(C)ccc2C)CC1,"inconclusive [falling, single point]",
CCn1c(=O)c2cc(C(=O)NCCCN3CCC(C)CC3)sc2c2ccccc21,"inconclusive [falling, single point]",
O=c1c2ccccc2n(Cc2cccc(F)c2)c(=O)n1Cc1ccccc1Cl,"inconclusive [falling, partial curve, poor fit]",
CC(C)c1ccc(S(=O)(=O)Nc2ccc3oc4c(c3c2)C(=O)CC(C)(C)C4)cc1,"inconclusive [falling, single point]",
COCCCNC(=O)c1sc2nc(C)c(C(=O)Nc3ccc(C)cc3C)c(-c3ccc(Cl)cc3)c2c1N,"inconclusive [falling, partial curve, poor fit]",
CC(=O)Nc1ccc(S(=O)(=O)N2CCC(Oc3ccc(-n4cnnn4)cc3)CC2)cc1,"inconclusive [falling, single point]",
COc1cc2ccccc2cc1C(=O)Nc1ccc2oc(-c3cccc(Cl)c3Cl)nc2c1,"inconclusive [falling, single point]",
COc1ccc(C(=O)N2CCc3cc(OC)c(OC)cc3C2COc2ccc3c(C)cc(=O)oc3c2)c(OC)c1 (stereo not given),"inconclusive [falling, partial curve]",
